In the supplement of paper PMC7125110:
Variants at the background level are over-represented here.

B1: glmS ribozyme (parent)
chain: AUAAAAGCGCCAGAACUACAGAAAUGUAGUUGACGAGGAGGAGGUUUAUCGAAUUUUCGGCGGAUGCCUCCAAA

What was measured:
Details in all cases: with glucosamine-6-phosphate
glucosamine-6-phosphate [1] = variants of: B1; test: self-cleavage kobs at 40 uM GlcN6P; higher = faster cleavage; RNA array
Method in brief: (§1)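 kobs was derived by fitting per-tile medians to one- or two-exponential decays after normalising signals to baseline and to non-cleaving reference variants. Those signals came from barcoded ribozyme variants transcribed in situ by E. coli RNA polymerase on sequenced MiSeq chips, followed through a hybridised Cy3 probe at 37 °C and imaged over ~14 h. Glucosamine-6-phosphate (40 μM to 10 mM) in HEPES/KCl/Mg(OAc)2 buffer was flowed in. Weighted Michaelis–Menten fits across concentrations then gave kcat and KM.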

glucosamine-6-phosphate [2] = variants of: B1; test: self-cleavage kobs at 640 uM GlcN6P; higher = faster cleavage; RNA array
Method in brief: as §1

glucosamine-6-phosphate [3] = variants of: B1; test: self-cleavage kobs at 160 uM GlcN6P; higher = faster cleavage; RNA array
Method in brief: as §1

glucosamine-6-phosphate [4] = variants of: B1; test: self-cleavage kobs at 2500 uM GlcN6P; higher = faster cleavage; RNA array
Method in brief: as §1

glucosamine-6-phosphate [5] = variants of: B1; test: self-cleavage kobs at 10000 uM GlcN6P; higher = faster cleavage; RNA array
Method in brief: as §1

AUAAAAGUGCCGGAACUACAGAAAUGUAGUUGACGAGGAGGAGGUUUUUCGACUUUUCGGCGAAUGCCUCCAAA
< 1e-05 s⁻¹: self-cleavage kobs at 40 uM GlcN6P (glucosamine-6-phosphate [1])

AUAAAAGUGCCAGAACUACAGAAAUGUAGUUGUCGGGGAGGAGGUUUAGCGAAUUUUCGGCGGAGGCCUCGAAA
< 1e-05 s⁻¹: self-cleavage kobs at 40 uM GlcN6P (glucosamine-6-phosphate [1])

AUAAAAGUGCCAGAACUACAGAAAUGUAGUUGCCGAGGAGGAGGUUUAUCGAAUUUUCGGCGGAUGCCUCCAAA
< 1e-05 s⁻¹: self-cleavage kobs at 40 uM GlcN6P (glucosamine-6-phosphate [1]) | self-cleavage kobs at 640 uM GlcN6P (glucosamine-6-phosphate [2]) | self-cleavage kobs at 160 uM GlcN6P (glucosamine-6-phosphate [3]) | self-cleavage kobs at 2500 uM GlcN6P (glucosamine-6-phosphate [4]) | self-cleavage kobs at 10000 uM GlcN6P (glucosamine-6-phosphate [5])

AUAAAAGGGCCAGAACUACAGAAAUGUAGUUGACGAGCAGGAGGUUUAUCGAAUUUUCGGCGGAUGCCUCCAAA
< 1e-05 s⁻¹: self-cleavage kobs at 40 uM GlcN6P (glucosamine-6-phosphate [1]) | self-cleavage kobs at 640 uM GlcN6P (glucosamine-6-phosphate [2]) | self-cleavage kobs at 160 uM GlcN6P (glucosamine-6-phosphate [3]) | self-cleavage kobs at 2500 uM GlcN6P (glucosamine-6-phosphate [4]) | self-cleavage kobs at 10000 uM GlcN6P (glucosamine-6-phosphate [5])

AUAAAAGGGCCAGAACUACAGAAAUGUAGUUGACGAGGAGAAGGUUUAUCGAAUUUUCGGCGGAUGCCUCCAAA
< 1e-05 s⁻¹: self-cleavage kobs at 40 uM GlcN6P (glucosamine-6-phosphate [1]) | self-cleavage kobs at 160 uM GlcN6P (glucosamine-6-phosphate [3]) | self-cleavage kobs at 2500 uM GlcN6P (glucosamine-6-phosphate [4]) | self-cleavage kobs at 10000 uM GlcN6P (glucosamine-6-phosphate [5])

AUAAAAGGGCCAGAACUACAGAAAUGUAGGUGACGAGGAGGAGGUUUAUCGAAUUUUCGACGGAUGCCUCCAAA
< 1e-05 s⁻¹: self-cleavage kobs at 40 uM GlcN6P (glucosamine-6-phosphate [1])

AUAAAAGUGCCAGGACUACAGAAAUGUAGUUGACGAGGAGGCGGUUUAUCGAAUUUUCGGCGGAUGCCUCCAAA
< 1e-05 s⁻¹: self-cleavage kobs at 40 uM GlcN6P (glucosamine-6-phosphate [1]) | self-cleavage kobs at 160 uM GlcN6P (glucosamine-6-phosphate [3]) | self-cleavage kobs at 2500 uM GlcN6P (glucosamine-6-phosphate [4])

AUAAAAGGGCCAGAACUACAGAAAUGUAGUUGACGAGGAGGAGGGUUAUCGAAUUUUCGGCGGAUGCCUGCAAA
< 1e-05 s⁻¹: self-cleavage kobs at 40 uM GlcN6P (glucosamine-6-phosphate [1]) | self-cleavage kobs at 10000 uM GlcN6P (glucosamine-6-phosphate [5])

AUAAAAGUGCCAGAACUACAGAAAUGUAGUUGUCGAGGAGGAGGUUUAUCGGAUUUUCGGCGGAUGCCUCCAAA
< 1e-05 s⁻¹: self-cleavage kobs at 40 uM GlcN6P (glucosamine-6-phosphate [1]) | self-cleavage kobs at 10000 uM GlcN6P (glucosamine-6-phosphate [5])

AUAAAAGGGCCAGAACUACAGAAAUGUAGUUGACGAGGAGGAGGUUCAUCGAAUUUUCGGCGGAUGCCUCCAAA
< 1e-05 s⁻¹: self-cleavage kobs at 40 uM GlcN6P (glucosamine-6-phosphate [1]) | self-cleavage kobs at 640 uM GlcN6P (glucosamine-6-phosphate [2]) | self-cleavage kobs at 160 uM GlcN6P (glucosamine-6-phosphate [3]) | self-cleavage kobs at 2500 uM GlcN6P (glucosamine-6-phosphate [4]) | self-cleavage kobs at 10000 uM GlcN6P (glucosamine-6-phosphate [5])

AUAAAAGGGCCAGAACUACAGAAAUGUAGUUAACGAGGAGGAGGUUUAUCGAAUUUUCGGCGGAUCCCUCAAAA
< 1e-05 s⁻¹: self-cleavage kobs at 40 uM GlcN6P (glucosamine-6-phosphate [1]) | self-cleavage kobs at 160 uM GlcN6P (glucosamine-6-phosphate [3]) | self-cleavage kobs at 10000 uM GlcN6P (glucosamine-6-phosphate [5])

AUAAAAGGGCCAGAACUACAGAAAUGUAGUUGACGAGGAGGAGGUUUAUCGAAUUCUCGGCGGAUGCCUCCAAA
< 1e-05 s⁻¹: self-cleavage kobs at 40 uM GlcN6P (glucosamine-6-phosphate [1]) | self-cleavage kobs at 640 uM GlcN6P (glucosamine-6-phosphate [2]) | self-cleavage kobs at 160 uM GlcN6P (glucosamine-6-phosphate [3]) | self-cleavage kobs at 2500 uM GlcN6P (glucosamine-6-phosphate [4]) | self-cleavage kobs at 10000 uM GlcN6P (glucosamine-6-phosphate [5])
